# Earlier results, collected in patent publication US20120207753A1, “METHODS OF USING CD44 FUSION PROTEINS TO TREAT CANCER” (CENTRE HOSPITALIER UNIVERSITAIRE VAUDOIS, priority 2009, published 2012).
# Tested on: melanoma
# Conditions: Ahrens et al., 2001
molecule,measurement,value
"Soluble CD44: soluble CD44 of Ahrens et al., 2001 (protein, extracellular domain) extracellular domain: [here about 200 residues without letters]ATTLMSTSATATETATKRQETWDWFSWLFLPSESKNHLHTTTQMAGTSSNTISAGWEPNEENEDERDRHLSFSGSGIDDDEDFISSTISTTPRAFDHTKQNQDWTQWNPSHSNPEVLLQTTTRMTDVDRNGTTAYEGNWNPEAHPPLIHHEHHEEEETPHSTSTIQATPSSTTEETATQKEQWFGNRWHEGYRQTPKEDSHSTTGTAAASAHTSHPMQGRTTPSPEDSSWTDFFNPISHPMGRGHQAGRRMDMDSSHSITLQPTANPNTGLVEDLDRTGPLSMTTQQSNSQSFSTSHEGLEEDKDHPTTSTLTSSNRNDVTGGRRDPNHSEGSTTLLEGYTSHYPHTKESRTFIPVTSAKTGSFGVTAVTVGDSNSNVNRSLSGDQDTFHPSGGSHTTHGSESDGHSHGSQEGGANTTSGPIRTPQIPE",melanoma tumor growth,inhibits melanoma tumor growth
